Read counts are not given, so values of variants with three or more changes are uncertain.

The labels stand for the following.
B1: LINE1-mini (parent)
chain: GGCAGAGCUCAACACAGCGUGGCAAAGUGGCUGUGGCUAGACUGCC

The series covers variants of B1. Description: self-cleavage, relative activity (ratio to wild type); higher = more cleavage; in vitro, sequencing; the parent is a self-cleaving ribozyme.
With G2C G5A C10A, the self-cleavage was 0.04.

Consider G1U A4C U20A C23G G30A U32C, for which the self-cleavage is 0.1. Consider C13A A14C A25U U34A G40C, for which the self-cleavage is 0.06.

As for C15G G19A A26G G29U, the self-cleavage was 0.12. With C3A A6C A16C A41C, the self-cleavage amounted to 0.11.

Consider G21U C31G A39U A41U, for which the self-cleavage came to 0.07.

With G17A A25G A26C G30C, the self-cleavage was determined as 0.05.

For A12G G27U U38A, the self-cleavage was found to be 0.01. The value for G30U C31A A39U C46G was 0.01; that for C13G G22A U32A was 0.05. The value for C3U A14C G35U was 0.07; that for G21C A25U U34C was 0.54; that for A4U G7C C13U G17U G21C C23U was 0.17. Regarding G7U A16U G21U A26C G40U C45A, the self-cleavage turned out to be 0.24. The value for A16C G21U C23G A39G was 0.04; that for A11G C31A U34G was 0.02; that for A4G G7C C8A U20A U38G A39G was 0.03. The value for G1A G21U G44U was 0.34; that for A16C G17C A26G G33A U43G C46A was 0.04.

For the variant C13U G21U G22A G35A G36A G40A, the self-cleavage amounted to 0.17. A4G A6G C31G G40C: the self-cleavage was found to be 0.08. In the case of G2C G5C U34A C45U, the self-cleavage was determined as 0.03.

Turning to G7A C23A U28C U32A C37G, the self-cleavage was determined as 0.01. The value for C15A A16G G19A U20A G29C U34G was 0.01; that for C3U G7C C13A G21A G35U was 0.05; that for G5C C13A C15A was 0.06. Turning to A4C G22C A26C, the self-cleavage amounted to 0.07. A16G A26U U34A A41C: the self-cleavage turned out to be 0.03. Take A16U A25C G36C A41U: the self-cleavage stood at 0.03. The value for C13A C15A C18U U32A was 0.03; that for C18A G29U U34A C37U was 0.01; that for G1U G30U C31A was 0.04.

For G21C C31A G40C, the self-cleavage is 0.03. G27U G35C C37A U38G: the self-cleavage came out at 0. The value for U9C G19A G22C G33C was 0.03; that for A6C U9A C10G U34G was 0.04. For the variant C3A G30C U32C G40U C46U, the self-cleavage was 0.15.

On to G21U G30A G44A, for which the self-cleavage worked out at 0.11. The value for C13U U28C C46A was 0.06; that for G7A A14C U34A was 0.04; that for C10A C18U G19C C42A was 0.02. As for G1A G19U A41G G44C, the self-cleavage stood at 0.07. With A14U G17U G33U A41G, the self-cleavage was 0.17. As to A6U C18U A24U U28G, the self-cleavage is 0.07. Then A14C G17U G19A C37U, with 0.03. For the variant A4U C8U C10A G19A U32C C42U, the self-cleavage was 0.02.

Regarding C10G G17A G21A C31A, the self-cleavage came out at 0.06.

With U20A A24G A25C U34G, the self-cleavage stood at 0.13. Then A6U A16G A26C, with 0.12. As to C15G G17C G33C C42A, the self-cleavage came to 0.01.

Take G7A C18A C42G U43C C45A: the self-cleavage was found to be 0.06. The value for G1A C18A G21A C42A U43G was 0.03.

With G2A G27U A39U, the self-cleavage stood at 0.14. The value for C3G C8A G44U was 0.23; that for U20G A25C C42U was 0.08; that for G21A G22C G35C was 0.18. The value for C3U G5A G35U was 0.28. In the case of G22A U28C G29U U38G, the self-cleavage was 0. The value for C10A A12U C31U C42G was 0.01. The value for G17A U34A C46U was 0. As for G2U G5U C37A, the self-cleavage is 0.06. Consider G19A G30U C46G, for which the self-cleavage is 0.99. In the case of C3U C15G G17C C18U G27A G33C C46A, the self-cleavage worked out at 0.03. Regarding A6G G27A U28G C42A C46G, the self-cleavage was 0.07.

In the case of G29A C31U C45U, the self-cleavage stood at 1.01. In the case of G21U G40U A41G C45A, the self-cleavage was 0.2.

For A11U G17U G30A G36U, the self-cleavage is 0.01. The value for G2U C13U G22C G30U was 0.03; that for C15A G33A G36U U43C was 0.02.

Take C8A G19C G30C: the self-cleavage turned out to be 0.26.

As to A11G A12U U20A G33U A41U, the self-cleavage is 0. Then C10G G17U G40C, with 0.02; and A4C U20G G29A G36U C37U A39G, with 0.02; and G2A A25C A39G U43A, with 0.08. On to G5C C18U U20G, for which the self-cleavage turned out to be 0.06. As to G5A A24C A26G U32G, the self-cleavage was 0.06. The value for C23G G29U A41U was 0.69; that for A6U U9C G22A G27C G40U was 0.04. For G1U A4U A12C, the self-cleavage came to 0.03. The value for C10U G17U A24U U38C C42A was 0.03; that for G17U G22U G44C was 0.14.

With A11G A26C G30U G33U, the self-cleavage was found to be 0.01. Then G19U G29U G33U G40C, with 0.02; and A16U G17U U34G G35C U43G C45U, with 0; and G27A G40A U43A, with 0.01. For the variant C3G A6U C13A G21A G30C A39U C45A, the self-cleavage stood at 0.05. The value for G1C A12C C42U was 0. Turning to G7C C10A G33C, the self-cleavage is 0.02. As for C8U G17U G27C C42U, the self-cleavage came to 0.05.

On to C8A G27A G30C C31A U43A, for which the self-cleavage worked out at 0.18.

Turning to A6U U9A C10U C23U A24U A25U, the self-cleavage is 0.19. Then C23A G27A U28C, with 1.26; and C37A U38A A39C, with 0; and G1A C8U U28A G30A G40U, with 0.3. In the case of G1A G19A C23U A25C C31A, the self-cleavage turned out to be 1.99.

For the variant U32C A39U A41U G44U C46U, the self-cleavage is 0.01.

Consider U9A A16C C42U, for which the self-cleavage was found to be 0.03.

Take C3U G21A G36C A39U: the self-cleavage is 0.17.

Consider G5C C8A A14U G27U, for which the self-cleavage was 0.6. For the variant C3U A16G U32A, the self-cleavage stood at 0.02. As for G2A A25U A41U G44U, the self-cleavage is 0.16.

As to C10A C18A G30A, the self-cleavage was 0.1. As to G5C C10A A24C, the self-cleavage amounted to 0.07. With A14G G21U C46G, the self-cleavage came to 0.91. The value for G5C G27C C37A was 0.03; that for A11G A14U G35C G40U C46U was 0. The value for C8A C23A U28C G33A A41U was 0.27. On to C10A A25U A26C G29A G30U G35U U43C C46G, for which the self-cleavage is 0.03. Then G1C G2U U32C U34C, with 0.02; and C18A G21U U32G G33A, with 0.12.

With G19U G22C A24C, the self-cleavage is 0.3. Then C3A U9G G17U G44C C46U, with 0.01; and G1U C8G C10G G30C, with 0.02. As for A6U G21A A41U, the self-cleavage was found to be 0.11. For the variant C3U A14C G29U, the self-cleavage is 0.28. Turning to G5C C15A A26G, the self-cleavage was determined as 0.03. On to G1C C18U G19A, for which the self-cleavage was 0.06.

On to U9G C10A C46U, for which the self-cleavage worked out at 0.02. The value for A4G C8G C23U G35A A39C G40C C42A was 0; that for G5A G7C A12G A16U C23G G27C U32A was 0.01. The value for A4G C42G G44U was 0.04. Take G2C A11C G17C C46A: the self-cleavage was 0.02.

On to C23A G30C G33U C45U, for which the self-cleavage came to 0.09. The value for G2A C3A A16U A25G G33U C46A was 0.37; that for G2C C3U A16G C18A U28C U43A was 0.08; that for G5A C15A G19C was 0.08. Then G1A A6U G30A U43C, with 0.13; and A11U A16U C45A, with 0.04; and C8A G27U U28A, with 0.7.

Consider A6U C15U C23U A24U G35A, for which the self-cleavage is 0.02. Then G1A C13U G29A G36U U38C C42A U43C, with 0.04. The value for C15A G21U C46U was 0.04; that for A14U A16G C18G A25C G44U was 0.02; that for G27A G35C U43G was 0.04. Then G33C U34A C45A, with 0.02; and A4U G17A G21U C42G, with 0.05; and C8A C10U A16U G22U, with 0.14. As to C3A G27C C42A C45U, the self-cleavage was 0.06. Then G5A C8A C18A, with 0.14.

Consider G1U C13U A25U G30A U32C, for which the self-cleavage amounted to 0.06. On to G7C C8U U28G C45G, for which the self-cleavage came to 0.22.

For the variant U9C A14G U34G G40C, the self-cleavage is 0. In the case of G22U U28A G33A, the self-cleavage was determined as 1.82. C3A G5C G7A C8A G19C G21A G40C C45A: the self-cleavage stood at 0.08.

Turning to A16U C18G G19U G21A C37A, the self-cleavage came out at 0.06.

In the case of C3G C8G C13G A16G G33U G40U, the self-cleavage amounted to 0.07.

On to C13G C31U A39C, for which the self-cleavage stood at 0.03. Consider C13A G19U A25U G30U, for which the self-cleavage came out at 0.13. C10U A12G C15A: the self-cleavage was 0.03. Then A6U A16C C18U U32A, with 0.07; and A6G C8U A14U A25C, with 0.29; and U9G A24G A41G G44U, with 0.06. For C8U C18U C23A G30U U34A, the self-cleavage stood at 0.02. Regarding G1U C31U A41U, the self-cleavage came to 0.04.

As for C3A G17C G22C C42U G44C C45A, the self-cleavage is 0.1.

Consider A6C C13U G17C U32C, for which the self-cleavage worked out at 0.15. Then A6C C10A C18A U43C G44U, with 0.06; and G5C A12G A39G C42G, with 0.01. Then A11G C15U G44A, with 0.04; and A4C G5C G7A, with 0.25; and A4G A6G C8G A12U U20G, with 0.01.

For C3U A11G G19A, the self-cleavage turned out to be 0.04. Then A26U U34C U38G, with 0.02; and U9A U20A A26U G35A, with 0.01; and C18A A26U U32C G36C, with 0.02. The value for G7C U9G A14G U43C was 0.88; that for U20C A25U G36U was 0.03.

These data come from the RNAGym collection of RNA variant scans (doi:10.7554/elife.90254).
